Assay results as given in PMC4336329 (PLoS ONE, 2015).
The campaign covered roughly 310,000 compounds. About 14,000 (4.5%) showed an effect of 50% or more. Effects have a minus sign here. The list shows a part of the results.

molecular target: human ether-à-go-go-related gene (hERG) potassium channel (human, UniProt Q12809); assay: primary screen, population patch clamp on CHO cells stably expressing hERG
Experimental: Briefly, Chinese hamster ovary (CHO) cells stably expressing the hERG channel were dislodged from tissue culture flasks and dispensed into PPC plates. […] During the recording, background leak currents were estimated by a 100 ms step to -80 mV from an initial holding potential of -70 mV and subtracted from the subsequent current measurement. The campaign was conducted in two phases using slight differences in recording protocol. In the first phase, the initial voltage pulse used a 100 ms step to -30 mV from a holding potential of -70 mV, a 2 s conditioning step to +25 mV, and a 2 s test step to -30 mV. During the second phase of the screen, the potential during the conditioning step was raised to +45 mV. In both phases of the campaign, a secondary voltage pulse was applied using the same parameters as the second phase initial pulse. The initial and secondary pulses were applied in the absence of compound, and upon application of 1 μM and 10 μM test concentrations. […]
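Further: peak tail current of the secondary pulse compared with the same well before compound.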

human ether-à-go-go-related gene (hERG) potassium channel, sequence (Q12809 whole entry, looked up): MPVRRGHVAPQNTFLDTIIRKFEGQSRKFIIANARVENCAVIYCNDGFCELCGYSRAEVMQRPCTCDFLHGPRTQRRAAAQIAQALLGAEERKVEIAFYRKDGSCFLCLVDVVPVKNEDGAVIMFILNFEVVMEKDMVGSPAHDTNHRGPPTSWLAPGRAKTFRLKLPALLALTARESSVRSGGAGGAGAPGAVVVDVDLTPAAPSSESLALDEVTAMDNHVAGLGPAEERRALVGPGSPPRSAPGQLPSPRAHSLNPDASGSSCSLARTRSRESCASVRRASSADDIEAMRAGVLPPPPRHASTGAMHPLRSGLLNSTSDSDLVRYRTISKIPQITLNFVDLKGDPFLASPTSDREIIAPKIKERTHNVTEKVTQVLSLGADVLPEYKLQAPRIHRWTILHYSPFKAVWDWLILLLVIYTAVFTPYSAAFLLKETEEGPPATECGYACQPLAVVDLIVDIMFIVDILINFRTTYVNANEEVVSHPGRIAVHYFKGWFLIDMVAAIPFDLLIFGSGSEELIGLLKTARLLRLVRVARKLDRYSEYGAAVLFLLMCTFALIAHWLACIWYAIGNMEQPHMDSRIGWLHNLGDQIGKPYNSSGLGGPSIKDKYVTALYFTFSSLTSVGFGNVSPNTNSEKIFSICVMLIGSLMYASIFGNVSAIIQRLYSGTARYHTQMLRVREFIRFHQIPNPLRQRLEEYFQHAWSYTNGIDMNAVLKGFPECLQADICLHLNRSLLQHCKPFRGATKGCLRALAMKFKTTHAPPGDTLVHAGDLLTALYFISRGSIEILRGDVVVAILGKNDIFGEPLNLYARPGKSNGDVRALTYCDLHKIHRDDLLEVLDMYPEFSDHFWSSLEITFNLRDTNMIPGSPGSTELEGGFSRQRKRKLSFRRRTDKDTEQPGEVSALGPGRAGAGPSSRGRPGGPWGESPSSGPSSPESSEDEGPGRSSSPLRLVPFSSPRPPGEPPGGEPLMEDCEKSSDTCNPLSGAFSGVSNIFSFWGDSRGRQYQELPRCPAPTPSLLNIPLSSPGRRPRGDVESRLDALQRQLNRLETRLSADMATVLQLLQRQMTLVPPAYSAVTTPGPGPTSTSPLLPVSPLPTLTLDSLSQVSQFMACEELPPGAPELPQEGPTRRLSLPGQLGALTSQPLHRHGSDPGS

Compared with `Cc1ccc(C2C3=C(CCCC3=O)Nc3[nH]c(=S)[nH]c(=O)c32)cc1` (stereo not drawn), `O=C1c2ccccc2C(=O)C1c1ccc(Cl)cc1` is lower in “hERG current change (%, negative = inhibition) at 10uM” value: 12.4% for the first, 8.89% for the second.

Compared with `CC1CCCN(C(=O)c2ccc3c(c2)OCO3)C1` (stereo not drawn), `O=c1c(O)c(-c2ccc3c(c2)OCO3)oc2ccccc12` is lower in “hERG current change (%, negative = inhibition) at 10uM” value: 3.08% for the first, -5.41% for the second.

Going from `CC(NC(=O)c1nn(C)c2c1CS(=O)(=O)c1ccccc1-2)c1ccccc1` (stereo not drawn) to `O=C(Nc1c(-c2ccccc2)nc2sccn12)c1ccccc1`, the “hERG current change (%, negative = inhibition) at 10uM” value rises from -13.1% to -0.966%.

First: CC(C)NC(=O)C1CC(=O)N(C(C)c2ccccc2)C1 (stereo not drawn)
Second: CCC(=O)N1CCc2cc(S(=O)(=O)NC(C(=O)NC(C)c3ccccc3)C(C)C)ccc21 (stereo not drawn)
The “hERG current change (%, negative = inhibition) at 10uM” value of the first is higher: 9.9% for the first, 8.52% for the second.

First: Cc1cc(C)nc(NC(=O)c2cccc(Cl)c2)n1
Second: CCc1ccccc1NC(=O)c1cc(C)no1
The “hERG current change (%, negative = inhibition) at 10uM” value of the first is lower: -13.9% for the first, 16.1% for the second.

Going from `Cn1c(O)c(C2=NNC(c3ccc(Cl)cc3)C2)c(=O)n(C)c1=O` (stereo not drawn) to `CC(=Nc1ccccc1N)c1c(O)n(C)c(=O)[nH]c1=O`, the “hERG current change (%, negative = inhibition) at 10uM” value rises from 2.21% to 21.4%.

Compared with `COc1ccc(OC)c(NC(=O)COc2ccc(S(=O)(=O)N3CCCC3)cc2)c1`, `COc1cccc(CNC(=O)C2Cc3cc(S(=O)(=O)N4CCCC4)ccc3N2C(C)=O)c1OC` (stereo not drawn) is higher in “hERG current change (%, negative = inhibition) at 10uM” value: -23.4% for the first, -2.93% for the second.

Compared with `O=C1CN(C(=O)c2cc([N+](=O)[O-])ccc2Cl)C(c2ccc(F)cc2)c2cc(F)ccc2N1` (stereo not drawn), `O=C(c1ccc(Cl)cc1)c1ccc(CN2C(=O)c3ccccc3C2=O)o1` is higher in “hERG current change (%, negative = inhibition) at 10uM” value: -16.8% for the first, 1% for the second.

Going from `CCOC(=O)Cc1csc(NC(=O)c2ccc(NC(C)=O)cc2)n1` to `COc1ccc(CC(=O)NNC(=O)c2ccc(NC(C)=O)cc2)cc1`, the “hERG current change (%, negative = inhibition) at 10uM” value rises from 7.36% to 19%.

Going from `O=C(c1nnc(-c2ccccc2)o1)C1CC1` to `O=C(CSc1nnc(-c2ccncc2)o1)Nc1cccc(F)c1`, the “hERG current change (%, negative = inhibition) at 10uM” value falls from 35.4% to -10.6%.

First: Cc1cc(-n2c(C)cc(C(=O)COc3ccc4ccc(=O)oc4c3)c2C)no1
Second: COc1ccc(C(=O)NC2CCN(C(=S)Nc3cc(C)cc(C)c3)CC2)cc1
The “hERG current change (%, negative = inhibition) at 10uM” value of the first is higher: 16.2% for the first, 11% for the second.

Compared with `Cc1cc(C)c2c(N)c(C(=O)NN3CC(=O)N(c4ccccc4F)CC3=O)sc2n1`, `CCCCOC(=O)Nc1sc2nc(C)cc(C)c2c1-n1cccc1` is higher in “hERG current change (%, negative = inhibition) at 10uM” value: -10.8% for the first, 11.5% for the second.

Compared with `Cc1ccc(CN2CCN(Cc3cnc(N(C)C)s3)CC2CCO)o1` (stereo not drawn), `CCC(=O)Nc1ccc(N2CCN(CC)CC2)c(Cl)c1` is lower in “hERG current change (%, negative = inhibition) at 10uM” value: 6.05% for the first, -3.56% for the second.

First: CC(C)(C)c1ccc(C(=O)CSc2n[nH]c(=O)[nH]c2=O)cc1
Second: CC(C)(C)NC(=O)CSc1nnc(-c2ccccn2)n1-c1ccccc1
The “hERG current change (%, negative = inhibition) at 10uM” value of the first is higher: -1.43% for the first, -9.24% for the second.

First: COCCNC(=S)Nc1cc2oc3ccccc3c2cc1OC
Second: CCOc1cc(NC(=S)NCCCOC)c(OCC)cc1NC(=O)c1ccco1
The “hERG current change (%, negative = inhibition) at 10uM” value of the first is higher: 6.49% for the first, -3.19% for the second.

Compared with `COc1ccc(S(=O)(=O)N2CCN(Cc3cccc(F)c3)CC2)cc1`, `COc1ccc(Br)c(C(=O)Nc2cccc(S(=O)(=O)N3CCOCC3)c2)c1` is lower in “hERG current change (%, negative = inhibition) at 10uM” value: -3.34% for the first, -6.55% for the second.

Going from `Nc1ccc(-c2nc3c(Cl)c(N)ccc3[nH]2)cc1` to `COc1ccc(Nc2cc(C)nc(N)n2)cc1`, the “hERG current change (%, negative = inhibition) at 10uM” value falls from 8.74% to 7.02%.

Compared with `Cn1c(=O)[nH]c(=O)c2c1nc(N(CCO)Cc1ccccc1)n2CCCc1ccccc1`, `Cc1nc(NC(=O)c2ccccc2)sc1-c1csc(NCCc2ccccc2)n1` is higher in “hERG current change (%, negative = inhibition) at 10uM” value: -64.6% for the first, 12% for the second.

Going from `O=C(NCCCO)C(=O)Nc1ccc2c(c1)N(S(=O)(=O)c1cccs1)CCC2` to `Cc1ccccc1NC(=O)Nc1ccc2c(c1)CCC2`, the “hERG current change (%, negative = inhibition) at 10uM” value rises from -11.5% to 24.4%.

Compared with `COc1ccc(-c2nsc3c(N4CCCCC4C)ncnc23)cc1` (stereo not drawn), `CCCOc1ccc(-c2c(C(=O)N/N=C/C3CCCCC3)nnn2-c2nonc2N)cc1` is lower in “hERG current change (%, negative = inhibition) at 10uM” value: 33.3% for the first, 13.9% for the second.

First: O=c1c2ccccc2nc2ccccn12
Second: O=c1c2ccccc2ncn1-c1ccc(Cl)cc1[N+](=O)[O-]
The “hERG current change (%, negative = inhibition) at 10uM” value of the first is higher: 74.7% for the first, -4.65% for the second.

First: COc1ccc(CNC(=O)c2c(O)c3ccccc3n(C)c2=O)cc1
Second: COc1ccc2c(=O)c(C(=O)NCc3ccccc3)c[nH]c2c1
The “hERG current change (%, negative = inhibition) at 10uM” value of the first is lower: 0.519% for the first, 11.1% for the second.

Compared with `COc1cc(Cl)ccc1OCc1cc(C(=O)N(C)Cc2cn(C)nc2C)no1`, `COc1ccc(-c2[nH]ncc2CNC(C)c2cn(C)nc2C)c(F)c1` (stereo not drawn) is higher in “hERG current change (%, negative = inhibition) at 10uM” value: -36.3% for the first, 1.73% for the second.

Going from `N#C/C(=C\c1cc(Br)ccc1F)C(=O)NC1CC1` to `O=C(O)C1CCC(CNS(=O)(=O)c2ccc(Br)cc2)CC1` (stereo not drawn), the “hERG current change (%, negative = inhibition) at 10uM” value rises from -29% to 16.9%.

Going from `Cc1ccc([N+](=O)[O-])cc1NC(=O)CCCOc1ccccc1` to `O=C(Oc1coc(CSc2ncccn2)cc1=O)c1cccc([N+](=O)[O-])c1`, the “hERG current change (%, negative = inhibition) at 10uM” value falls from 9.07% to -81.3%.

Compared with `Cc1cccc2c1-c1sc(C(=O)Nc3ccccc3N3CCN(C)CC3)cc1CO2`, `COc1ccccc1N1CCN(c2ccnc3cc(Cl)ccc23)CC1` is lower in “hERG current change (%, negative = inhibition) at 10uM” value: -13.4% for the first, -43.4% for the second.

Compared with `CC(C)n1cnc2cc(NCc3nc4ccccc4n3C)ccc21`, `CC(C)n1cc(/C=C2\NC(=O)N(c3cccc(Cl)c3)C2=O)c2ccccc21` is higher in “hERG current change (%, negative = inhibition) at 10uM” value: -28.6% for the first, 7.73% for the second.

Going from `CC[C@@H](C)CN1C(=O)N[C@@H](c2ccccc2)C(C(C)=O)=C1C` to `COc1ccc2ccccc2c1CNC(=O)CC1C(=O)NCCN1CC(C)C` (stereo not drawn), the “hERG current change (%, negative = inhibition) at 10uM” value falls from -0.516% to -28.9%.

First: Cc1cccc(-n2c(/C=C/c3ccc([N+](=O)[O-])o3)nc3ccccc3c2=O)c1
Second: Cc1cccc(N2C(=O)C(Cc3ccccc3)NC2=S)c1 (stereo not drawn)
The “hERG current change (%, negative = inhibition) at 10uM” value of the first is lower: -40.3% for the first, 0.534% for the second.

First: O=C(c1cnc2n(c1=O)CCS2)N1CCN(c2ccccc2F)CC1
Second: COc1ccc(C(c2nnnn2Cc2cccs2)N2CCN(c3ccccc3F)CC2)cc1OC.Cl (stereo not drawn)
The “hERG current change (%, negative = inhibition) at 10uM” value of the first is higher: -5.65% for the first, -39.6% for the second.

First: CCC(C)NC(=O)CN(c1ccc2c(c1)OCO2)S(=O)(=O)c1c(C)n[nH]c1C (stereo not drawn)
Second: CCOc1ccc(S(=O)(=O)N(CC(=O)N/N=C/c2cccs2)c2ccc(C)cc2)cc1
The “hERG current change (%, negative = inhibition) at 10uM” value of the first is higher: 0.869% for the first, -9.47% for the second.

First: NC(=O)C1=C[C@H](c2ccc3c(c2)OCO3)C[C@H](OCc2ccc(CO)cc2)O1
Second: COc1ccc(C2SCCN2S(=O)(=O)c2ccc(NC(C)=O)cc2)cc1OC (stereo not drawn)
The “hERG current change (%, negative = inhibition) at 10uM” value of the first is lower: -18.8% for the first, -11.7% for the second.

First: O=C(Nc1ccc(-c2ccc(N3CCCCC3)nn2)cc1)c1ccco1
Second: O=C(Cc1ccccc1)Nc1ccc(NC(=O)C2CCCCC2)nc1
The “hERG current change (%, negative = inhibition) at 10uM” value of the first is higher: 8.14% for the first, -48.5% for the second.

Going from `COc1ccccc1NC(=O)C(=O)c1cn(CC(=O)N2CCCC2)c2ccccc12` to `COc1ccc(Cl)cc1NC(=S)N1CCN(C(=O)c2ccco2)CC1`, the “hERG current change (%, negative = inhibition) at 10uM” value falls from 1.64% to -4.94%.

Compared with `Cc1cc(C)n(CCNC(=O)CCc2nnc(CCc3ccccc3)o2)n1`, `CN(Cc1cn(-c2ccccc2)nc1-c1ccc(Cl)cc1)C(=O)CCC(=O)O` is lower in “hERG current change (%, negative = inhibition) at 10uM” value: 12.4% for the first, 0.835% for the second.

Compared with `CC(C)NC(=O)C(=O)NCCCOC(C)C`, `COc1ccc(C(=O)O)cc1S(=O)(=O)NCCN(C)C` is lower in “hERG current change (%, negative = inhibition) at 10uM” value: 15.8% for the first, 11.5% for the second.

Compared with `COC(CNC(=S)Nc1ccc([N+](=O)[O-])cc1)OC`, `COc1ccc(NC2CCCN(C(=O)c3cccc(C)n3)C2)cc1OC` (stereo not drawn) is higher in “hERG current change (%, negative = inhibition) at 10uM” value: -6.22% for the first, 18.5% for the second.

Compared with `O=C(O)c1cc(S(=O)(=O)N2CCOCC2)c[nH]1`, `O=C(NCC(c1ccco1)N1CCOCC1)c1ccc(F)c(F)c1` (stereo not drawn) is higher in “hERG current change (%, negative = inhibition) at 10uM” value: -7.35% for the first, 0.222% for the second.

Compared with `COc1ccc(CNC(=O)Cn2cc3c(n2)CCCCC3)cc1`, `C=CCNC(=O)c1cc(-c2ccc(Br)cc2)on1` is lower in “hERG current change (%, negative = inhibition) at 10uM” value: 3.36% for the first, 1.88% for the second.

Going from `COc1ccc(Cc2noc(-c3ccc(OC)c(OC)c3)n2)cc1OC` to `O=C(O)c1cccc2c1C(=O)c1cc(Br)ccc1S2(=O)=O`, the “hERG current change (%, negative = inhibition) at 10uM” value rises from -38.6% to 20.2%.

Going from `O=C(NC(=S)Nc1cccc2cccnc12)c1ccccc1` to `O=C(Nc1ccc(C(=O)O)cc1)/C(=C\c1ccco1)NC(=O)c1ccccc1`, the “hERG current change (%, negative = inhibition) at 10uM” value rises from 19.6% to 21.2%.

First: CCN(CC)S(=O)(=O)c1ccc(-c2nnc(SCC(=O)Nc3nnc(C)s3)n2CC)cc1
Second: Cc1ccc(C)n1-c1nnc(N2CCC(C(=O)NCCCN3CC(C)CC(C)C3)CC2)s1 (stereo not drawn)
The “hERG current change (%, negative = inhibition) at 10uM” value of the first is higher: 12.2% for the first, -17.7% for the second.

Compared with `Cn1c(=O)c2ncn(CC(=O)N/N=C/c3ccco3)c2n(C)c1=O`, `CC(NC(=O)c1ccco1)C(=O)N1CCN(c2cccc(C(F)(F)F)c2)CC1` (stereo not drawn) is lower in “hERG current change (%, negative = inhibition) at 10uM” value: -1.93% for the first, -20.4% for the second.

Compared with `O=C(O)CSc1ccccn1`, `CC1CCN(CCn2c(=S)[nH]c3ccccc3c2=O)CC1` is lower in “hERG current change (%, negative = inhibition) at 10uM” value: 18% for the first, -32.6% for the second.

Compared with `CCOC(=O)C1CCN(c2ccc(Cl)nn2)CC1`, `CCCCN(CCCC)CCCNC(=O)CN1C(=O)COc2ccc(S(=O)(=O)N3CCC(C)CC3)cc21` is lower in “hERG current change (%, negative = inhibition) at 10uM” value: 4.48% for the first, -74.8% for the second.
